Test results published in the antibiotic and cytotoxicity screens of Wong et al. (2023).
The list shows a part of the results.

These compounds were tested on S. aureus RN4220 (assay: growth inhibition call (relative growth <= 0.2)). Settings: 50 µM.

Growth inhibition call, inactive:
COc1ccc(S(=O)(=O)Nc2cccc3c2O[C@@H](CN(C)S(=O)(=O)c2ccc(F)cc2)[C@@H](C)CN([C@H](C)CO)C3=O)cc1, C[C@H]1CCCCO[C@H](CN(C)C(=O)Nc2ccc(F)cc2)[C@@H](C)CN([C@@H](C)CO)C(=O)c2cc(NC(=O)Cc3ccccc3)ccc2O1, C[C@@H]1CN([C@H](C)CO)C(=O)c2cc(N(C)C)ccc2O[C@@H]1CN(C)S(=O)(=O)c1ccc(Cl)cc1, COc1ccc(CN(C)C[C@@H]2OCCCC[C@H](C)Oc3ccc(NS(=O)(=O)c4ccc(Cl)cc4)cc3C(=O)N([C@@H](C)CO)C[C@H]2C)cc1, O=C(C[C@@H]1CC[C@@H]2[C@H](COC[C@H](O)CN2S(=O)(=O)c2cccc(F)c2)O1)NCc1ccc2c(c1)OCO2, C[C@H]1CN([C@@H](C)CO)C(=O)Cc2cc(NC(=O)CCCCCC(=O)Nc3ccccc3N)ccc2O[C@@H]1CN(C)C(=O)Nc1ccc(C(F)(F)F)cc1, COC(=O)CC1C(C)(C)C(=O)C2CC3C4=CC(=O)OC(c5ccoc5)C4(C)CCC3C1(C)C2=O (stereo unspecified), CCCNC(=O)N(C)C[C@@H]1Oc2ncc(-c3ccc(C(=O)N(C)C)cc3)cc2C(=O)N([C@@H](C)CO)C[C@H]1C, C[C@@H](O)Cn1c(=N)n(C)c2ccccc21, Cc1ccc(C(C)C)c(O)c1, COc1ccc(NC(=O)Nc2cccc3c2O[C@@H](CN(C)Cc2ccc(C(=O)Nc4ccccc4N)cc2)[C@@H](C)CN([C@@H](C)CO)C3=O)cc1, C[C@@H]1CN([C@H](C)CO)C(=O)c2cc(NC(=O)Cn3cnnn3)ccc2O[C@H]1CN(C)Cc1ccc(-c2ccccc2)cc1, O=C(c1cccnc1)N1C[C@H]2[C@@H](c3ccccc31)[C@H](CO)N2C(=O)CN1CCOCC1, NS(=O)(=O)c1cc2c(cc1C(F)(F)F)NC(Cc1ccccc1)NS2(=O)=O (stereo unspecified), COc1cc(C2c3cc4c(cc3C(OC3OC5COC(c6cccs6)OC5C(O)C3O)C3COC(=O)C23)OCO4)cc(OC)c1O (stereo unspecified), C[C@@H]1CN([C@@H](C)CO)C(=O)c2cccc(NC(=O)c3nc4ccccc4s3)c2O[C@H]1CN(C)C(=O)Nc1ccc(F)cc1, O=C(C[C@@H]1CC[C@@H]2[C@H](COC[C@H](O)CN2S(=O)(=O)c2ccc(Cl)cc2)O1)NCC1CCCCC1, [N-]=[N+]=Nc1ccccc1[C@@H]1OC(c2ccc(OCCCO)cc2)=N[C@]1(CCS(=O)(=O)c1ccccc1)C(=O)NCc1ccccc1, C[C@@H]1O[C@@H](O[C@H]2[C@H](Oc3cc(O)c4c(c3)O[C@H](c3ccc(O)cc3)CC4=O)O[C@H](CO)[C@@H](O)[C@@H]2O)[C@H](O)[C@H](O)[C@H]1O, C[C@@H]1[C@@H]([Si](C)(C)F)[C@H](CCO)O[C@@]12C(=O)N(Cc1ccccc1)c1ccc(N(C=O)c3ccccc3)cc12, C[C@H](CO)N1C[C@H](C)[C@H](CN(C)C(=O)Nc2cccc3ccccc23)OCCCC[C@H](C)Oc2ccc(NS(C)(=O)=O)cc2C1=O, C[C@@H]1CN([C@@H](C)CO)C(=O)Cc2cc(NC(=O)c3ccncc3)ccc2O[C@H]1CN(C)S(=O)(=O)c1cccs1, CC(=O)C1CCN(C(C)=O)CC1, CC(C)(C)OC(=O)C[C@H]1CC=CC[C@@H](CC(=O)N[C@H](CO)Cc2ccccc2)C(=O)N2CCC[C@@H]2COC1=O, C[C@@H]1CN([C@H](C)CO)C(=O)c2cccc(NC(=O)Nc3ccc(C(F)(F)F)cc3)c2O[C@@H]1CN(C)Cc1ccncc1, COc1ccc(S(=O)(=O)N(C)C[C@@H]2Oc3ccc(NS(=O)(=O)c4cccs4)cc3CC(=O)N([C@H](C)CO)C[C@H]2C)cc1, COCC(=O)N(C)C[C@H]1Oc2cc(C#Cc3cccnc3)ccc2S(=O)(=O)N([C@@H](C)CO)C[C@@H]1C, C[C@@H]1CN(C)S(=O)(=O)CCO1, C[C@@H]1CN([C@H](C)CO)C(=O)c2cc(N(C)C)ccc2O[C@@H](C)CCCCO[C@@H]1CN(C)C(=O)Nc1cccc2ccccc12, Cc1noc(C)c1NC(=O)N(C)C[C@@H]1OCCCC[C@@H](C)Oc2ccc(NC(=O)C3CCCCC3)cc2C(=O)N([C@@H](C)CO)C[C@H]1C, C[C@H](CO)N1C[C@H](C)[C@H](CN(C)S(=O)(=O)c2cn(C)cn2)Oc2ccc(NC(=O)CCC(F)(F)F)cc2C1=O
